In all, about 310,000 compounds went through this assay and about 14,000 (4.5%) showed an effect of 50% or more. The effect is printed as a negative number. This is one part of the list.
The molecules below were run against human ether-à-go-go-related gene (hERG) potassium channel (human, UniProt Q12809) (assay: primary screen, population patch clamp on CHO cells stably expressing hERG).
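Note: peak tail current of the secondary pulse compared with the same well before compound.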

Chain of human ether-à-go-go-related gene (hERG) potassium channel (Q12809 whole entry, looked up): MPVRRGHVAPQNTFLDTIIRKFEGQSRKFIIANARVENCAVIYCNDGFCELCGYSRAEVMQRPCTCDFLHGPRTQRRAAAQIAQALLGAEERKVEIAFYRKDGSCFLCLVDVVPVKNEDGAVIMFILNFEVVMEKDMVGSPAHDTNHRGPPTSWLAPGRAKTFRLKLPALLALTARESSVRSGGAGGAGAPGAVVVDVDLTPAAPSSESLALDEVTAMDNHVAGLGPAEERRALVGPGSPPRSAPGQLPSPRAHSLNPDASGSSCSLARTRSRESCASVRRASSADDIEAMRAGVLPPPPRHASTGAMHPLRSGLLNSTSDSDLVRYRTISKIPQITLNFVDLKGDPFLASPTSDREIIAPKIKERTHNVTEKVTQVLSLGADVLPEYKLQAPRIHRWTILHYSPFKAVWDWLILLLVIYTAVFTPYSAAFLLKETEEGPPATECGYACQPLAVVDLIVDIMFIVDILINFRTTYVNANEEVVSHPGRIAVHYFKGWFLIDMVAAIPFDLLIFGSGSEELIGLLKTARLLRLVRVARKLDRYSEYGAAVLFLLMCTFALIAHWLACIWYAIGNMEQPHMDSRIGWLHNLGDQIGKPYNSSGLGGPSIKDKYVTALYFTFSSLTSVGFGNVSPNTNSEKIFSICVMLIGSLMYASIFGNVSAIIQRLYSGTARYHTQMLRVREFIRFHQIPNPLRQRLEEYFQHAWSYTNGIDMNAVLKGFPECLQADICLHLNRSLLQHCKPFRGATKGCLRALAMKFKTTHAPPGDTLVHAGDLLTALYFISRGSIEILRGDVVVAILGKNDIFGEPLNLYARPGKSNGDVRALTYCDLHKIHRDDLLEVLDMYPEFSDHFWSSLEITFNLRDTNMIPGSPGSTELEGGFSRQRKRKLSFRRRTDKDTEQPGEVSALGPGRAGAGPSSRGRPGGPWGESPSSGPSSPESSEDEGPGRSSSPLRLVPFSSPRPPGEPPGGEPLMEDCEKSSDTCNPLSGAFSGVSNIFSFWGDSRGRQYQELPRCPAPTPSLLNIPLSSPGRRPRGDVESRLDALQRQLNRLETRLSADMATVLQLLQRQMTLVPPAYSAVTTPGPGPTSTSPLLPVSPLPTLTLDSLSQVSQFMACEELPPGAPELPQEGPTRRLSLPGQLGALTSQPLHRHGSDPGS

Structure (SMILES)	hERG current change (%, negative = inhibition) at 10uM [%]
Cc1ccccc1CNC1CCCCC1.Cl	-7.81
CN(Cc1ccccc1)CC(O)COc1ccc(CNCCCOc2cccnc2)cc1 (stereo not shown)	11.7
O=C(O)CC1=C(O)C(=O)N(c2ccccc2)C1c1ccc(Cl)cc1 (stereo not shown)	9.31
Cc1sc2ncn(CC(=O)NC3CCCCC3)c(=O)c2c1C	-18.4
O=c1[nH]c(SCc2nc3ccccc3c(=O)n2-c2ccccc2C(F)(F)F)nc2ccccc12	-7.23
O=C(Nc1cccnc1)Nc1cccc(F)c1	11
O=C(N/N=C/c1ccc(F)cc1)c1cccc(NC(=O)c2ccc(F)cc2)c1	-4.54
COC(=O)c1[nH]c2cc(OC)c(OC)cc2c1/C=N/Nc1ccccc1	14.2
CCC(C)N1CCN(S(=O)(=O)c2ccc3ccccc3c2)CC1.O=C(O)C(=O)O (stereo not shown)	14.9
CC(=O)c1c(C)[nH]c(C(=O)OCC(=O)Nc2c(C)cccc2C)c1C	20.8
CC(=O)Nc1ccc(S(=O)(=O)N(Cc2ccco2)CC2CCCO2)cc1 (stereo not shown)	8.3
COc1ccc(-n2c(Cc3cccn3C)nnc2SCC(=O)NCCc2ccccc2)cc1	6.15
O=C(N/N=C/c1cn(-c2ccccc2)nc1-c1cccnc1)c1ccc(F)cc1	-41.3
COc1ccc(Oc2nc(-c3ccncc3)nc3ccccc23)cc1	14.1
CC1CCN(C2=C(NS(=O)(=O)c3ccccc3)C(=O)c3ccccc3C2=O)CC1	-21.1
O=C(CSc1ccc(-c2ccc(F)cc2)nn1)NC1CCCCC1	-6.19
Cn1nc(-c2ccc(OCC(N)=O)cc2)c2ccccc2c1=O	-8.41
COc1ccc(C2CC(C(F)(F)F)n3nc(C(=O)O)cc3N2)cc1OC (stereo not shown)	-7.6
CCOC(=O)c1cn2ccc(C)cc2n1	24
CCCc1ccc(OCc2nc(-c3ccc(NC(=O)c4cccs4)cc3)no2)cc1	1.52
Cc1nnc(SCCOc2ccccc2)s1	9.54
O=C1CSC(c2ccccn2)N1Cc1cn2ccccc2n1 (stereo not shown)	-4.27

Structure (SMILES)	hERG current change (%, negative = inhibition) at 10uM [%]
Cc1ccc(NC(=O)CC2NCCNC2=O)cc1Cl (stereo not shown)	24.9
CCN(CC)C(=O)C1CCCN(C(=O)CCn2nnnc2CN2CCOCC2)C1 (stereo not shown)	17.7
CCC(C)n1ncn(-c2ccc(N3CCN(c4ccc(OCC5COC(Cn6cncn6)(c6ccc(Cl)cc6Cl)O5)cc4)CC3)cc2)c1=O (stereo not shown)	21.2
O=C(O)CCC(=O)Nc1nc2nccc(-c3ccccc3)n2n1	0.28
O=C(c1cc(C(=O)N2CCN(c3ccc(F)cc3)CC2)cc([N+](=O)[O-])c1)N1CCN(c2ccc(F)cc2)CC1	-26.2
O=C(O)c1cc(NS(=O)(=O)c2ccc(N3CCCCC3)c([N+](=O)[O-])c2)cc(C(=O)O)c1	-1.82
Cc1ccc(-c2onc3ccc(C=O)cc23)cc1	-8.19
Cc1ccc(N2CC(C(=O)Nc3ccccn3)CC2=O)cc1 (stereo not shown)	-10.7
CC(NC(=O)c1ccccc1)c1nnc(SCC(=O)Nc2nnc(C3CC3)s2)n1C (stereo not shown)	2.96
Cc1ccc(-c2csc(/C(C#N)=C/Nc3ccccc3SC(F)(F)F)n2)cc1	26.5
Cc1ccc(F)cc1CNC(=O)C1CCC(=O)N(CCCN2CCCC2=O)C1 (stereo not shown)	14.6
CCn1c(SCC(=O)Nc2ccc(C)cc2)nnc1-c1cnccn1	-31.8
COc1ccc(NC(=O)c2cc(S(=O)(=O)N3CCCCC3)c[nH]2)cc1Cl	-0.251
Cc1ccc(/C=N/NC(=O)COc2ccccc2-c2ccccc2)cc1	-3.49
CCOCCOC(=O)C1=C(C)NC2=C(C(=O)CC(c3cccs3)C2)C1c1ccsc1 (stereo not shown)	4.4
Cc1cc(O)c2/c(=N\N)c(-c3csc(C)n3)coc2c1	4.24
Cn1cccc1-c1nc2ccc(NC(=O)c3cccs3)cc2[nH]1	-53.3
CCOC(=O)N1CCN(C(=S)NC(=O)c2nn(C)cc2Br)CC1	22.1
O=C(Nc1ccc(F)cc1)c1cccc2c1C(=O)N(CC1CCCO1)C2 (stereo not shown)	-45.4
CN1CCN(S(=O)(=O)c2ccc(N(C)Cc3cccs3)nc2)CC1	-11.7
Cc1cccc(NC(=O)CCN2C(=O)C3C4C=CC(C4)C3C2=O)n1 (stereo not shown)	5.71
Cc1ccc(C)c(OCCC(=O)OCC(=O)NC2CCCC2)c1	-2.45

Structure (SMILES)	hERG current change (%, negative = inhibition) at 10uM [%]
CC(Sc1nnc2c(n1)[nH]c1ccccc12)C(=O)N(C)C1CCCCC1 (stereo not shown)	-29.1
CCCc1nn2c(=O)cc(CSCC(=O)Nc3ccc(C)cc3)nc2s1	3.95
Cc1ccc(S(=O)(=O)NC(=O)c2cc(C)n(CC(c3ccccc3)N(C)C)c2C)cc1 (stereo not shown)	-1.14
N#Cc1cc2ccccc2nc1SCc1cccnc1	-5.37
CC(=O)Nc1sc(N/N=C/c2ccccc2)nc1-c1ccc(C)cc1	15.9
Cc1ccc(CS(=O)Cc2ccc(C(=O)NC3CCC(C)CC3)o2)cc1 (stereo not shown)	-51
CCC(=O)N1CCN(c2ccc(NC(=S)NC(=O)c3ccc(OC)c([N+](=O)[O-])c3)cc2)CC1	-15.7
CCO[C@H]1OC(C(=O)N2CCOCC2)=C[C@@H](c2ccc(Br)cc2)[C@@H]1CCCO	-8.92
Cl.O=C(c1cc2ccccc2o1)N1CCN(Cc2ccccc2)CC1	-32.6
CS(=O)(=O)Nc1cccc(C(=O)CC2(O)C(=O)Nc3ccc(Br)cc32)c1 (stereo not shown)	14.3
CCOc1cc(/C=C/c2cccc[n+]2C)ccc1O.[I-]	24.7
O=C(CCNC(=O)c1ccco1)NCCN1C(=O)S/C(=C\c2ccc(F)cc2)C1=O	-9.54
NS(=O)(=O)c1ccc(Nc2ccccc2)c([N+](=O)[O-])c1	-6.17
Cc1c(-c2ccccc2)nc2ccccc2c1C(=O)O	2.56
COCCn1c(-c2ccccc2)cc(C(=O)O)c1C	21.2
CCC1=NNc2cccc3c(OC)ccc1c23	8.13
CCCN1CNC(=S)N(c2cccc(C)c2C)C1	1.72
COc1nccc(-c2ccc(F)cc2)c1C#N	-10.4
CN(C)c1ccc(/C=C2/C(=O)NC(=O)N(CCc3ccc(F)cc3)C2=O)cc1	14.5
O=C(CCSCc1cccc(F)c1)NCc1ccc(F)cc1	-22.3
Clc1ccc2nc3ccccn3c2c1	-3.52
CCOC(=O)C1CCN(C(C)=C2C(=O)c3ccccc3C2=O)CC1	-15.4

Structure (SMILES)	hERG current change (%, negative = inhibition) at 10uM [%]
CCc1ccc(C(=O)Nn2c(C)nc3ccccc3c2=O)cc1	-1.71
CN(CC1COc2ccccc2O1)C(=O)c1cc(COc2c(F)cccc2F)on1 (stereo not shown)	1.61
Cc1c(C(=O)NCc2ccoc2)oc2ccc3c(c12)C(=O)CC(C)(C)O3	-11.7
Cc1ccc(C)c(S(=O)(=O)N2CCN(C(=O)CCNS(=O)(=O)c3ccccc3)CC2)c1	-33.6
N#Cc1ccccc1S(=O)(=O)N1CCN(C(=O)Cc2coc3cc(O)ccc23)CC1	-24
O=C(Nc1cccc2cccnc12)c1ccc(Cl)cc1Cl	24.4
Cc1ccc(-n2nc(C)c(C(C)(O)C(F)(F)F)c2N)cc1 (stereo not shown)	2.4
COP(=O)(/C=C(\Cl)c1ccccc1)/C=C(\Cl)c1ccccc1	-9.32
C=CCNc1oc(-c2ccc(OC)cc2)nc1C#N	6.02
COc1ccc(S(=O)(=O)N2CCCCC2)cc1NC(=O)c1ccc2c(c1)OCO2	15.4
COc1ccc(C(=O)N2CCN(c3ccccn3)CC2)cc1[N+](=O)[O-]	-14.9
O=c1cc(COc2ncnc3c(Cl)cc(Cl)cc23)nc2sccn12	-7.76
CN(C(=O)c1ccc2c(=O)n3c(nc2c1)CCCCC3)c1ccccc1F	-21.9
CCOC(=O)c1csc(-c2ccc([N+](=O)[O-])cc2)n1	-10.9
CCC1COCCS(=O)(=O)N1Cc1ccccc1F (stereo not shown)	-9.1
CC(C)OCCCNC(=O)CCN1C(=O)COc2ccccc21	8.74
CCCn1c(SCC(=O)c2cc(C)ccc2C)n[nH]c1=O	6.52
CCC(=O)Nc1cccc(C2=NOC3(C2)C[C@@H](C(N)=O)N(C(=O)C(c2ccccc2)c2ccccc2)C3)c1 (stereo partly shown)	-0.649
CC(=O)Nc1ccc(S(=O)(=O)Nc2cccc(-c3cn4cccnc4n3)c2)cc1	22.1
COC(=O)Nc1ccc(S(=O)(=O)N2CCCC(C(=O)O)C2)cc1 (stereo not shown)	42.5
Cc1ccc2nc(-c3cccc(N)c3)oc2c1	-4.21
COc1cccc(CC(=O)N2CCN(c3ccccc3[N+](=O)[O-])CC2)c1	-21

Reference: paper PMC4336329 (PLoS ONE, 2015)
